# ± gives the standard deviation. The full ranking holds about 3,700 sequences; the median of “pre-steady-state target cleavage rate” is about 0.02, and the highest 2% start at about 0.23. Only a part is listed here, and it is no random draw.
# Tested on: MILI (PIWIL2) piRISC loaded with Kctd7 piRNA (26 nt)
# Experiment: pre-steady-state target cleavage rate (min^-1); MIWI and MILI are mouse PIWI proteins and EfPiwi is from a freshwater sponge; tags in brackets are library labels; higher = faster piRNA-guided slicing of the target
# Conditions: guide: Kctd7 piRNA 5'p-UGUUAAUCUCUCAGAGAAGGUGACAG; auxiliary factor: 500 nM mouse GTSF1
# How it was run: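 Cleave-'n-Seq used a transcribed, DNA-blocked target RNA library at 0.1 nM and active affinity-purified piRISC with one synthetic guide at 1 nM, with or without 500 nM GTSF1 partner protein, in HEPES–potassium acetate buffer at 33 °C for 0–8 or 0–960 min. Uncleaved targets were sequenced and normalised to depth and to weakly complementary targets, and three trials were pooled with k3 capped at 0.0001 min^-1. The pre-steady-state cleavage rate was estimated by a burst-and-steady-state fit.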
row,Sequence,pre-steady-state target cleavage rate
1,UAGUGAGUCACCUUCUCUCAGAGAUAAACA,0.0162 ± 0.008
2,UAGUCUGUAACCUUCUCUGAGAGAUUAACA,0.182 ± 0.011
3,UAGUGACAGUGCUUCUCUGAGAGAUUUAGA,< 0.0001
4,UAGUGACACACCAUCUCUCAGAGAUUAACA,0.0222 ± 0.006
5,UAGUGUGUCACCAUCACUGAGAGAUUAACA,0.157 ± 0.012
6,UAGUGACUCACCUUCUCUGUGAGAUUAAGA,0.0223 ± 0.0049
7,UAGUGACAGAGCUUCUCUCAGAGAUUAACA,0.0112 ± 0.0039
8,UAGUGAGUCACCUUGUCUCAGAGAUUAACA,0.0277 ± 0.0064
9,UAGUGACACACCUUCAGUGAGAGAUUAAGA,0.0275 ± 0.011
10,UAGUGACAGACGUUCUCUGAGAGAUAAACA,0.0112 ± 0.0046
11,UAGUGACAGUGGUUCUCUGACAGAUUAACA,< 0.0001
12,UAGUGUGUCACCAUGUCUGAGAGAUUAACA,0.0676 ± 0.0067
13,UAGUGACUGUCCUUCUCUGAGAGAUUAACA,0.2 ± 0.016
14,UAGUGACACACCUUCUGUGAGAGAUUUACA,0.0481 ± 0.016
15,UAGUGACUCAGCUUCUCUGAGAGAUAAACA,0.0258 ± 0.0049
16,UAGUGAGACACCUUCUCUGAGAGAUUAUCA,0.138 ± 0.035
17,UAGUCUGUCACCUAUCUCUGAGAGAUUAACA,0.155 ± 0.01
18,UAGUGAGUCACCUUCUCAGAGAGUUUAACA,0.143 ± 0.045
19,UAGUGACAGUCCUUCUCUGAGUCUUUAUGA,< 0.0001
20,UAGUGAGUCACCUUCUCUGACGAGAUUAACA,0.0343 ± 0.011
21,UAGUGACAGUCCUUUUCUGAGAGAUUAACA,0.0721 ± 0.0096
22,UAGUGACUCUCCUUCUCUGAGACAUUAACA,0.0732 ± 0.01
23,UAGUGAGUCACGAACUCUGAGAGAUUAAGA,0.0091 ± 0.0034
24,UAGUGUGAGUCCUUCUCUGAGAGAUUAACA,0.0652 ± 0.014

row,Sequence,pre-steady-state target cleavage rate
1,UAGUGACUCACCUUCUCUGGAGAUUAACA,0.00403 ± 0.0035
2,UAGUGAGUCAGCUUCUGUGAGAGAUUAACA,0.127 ± 0.0085
3,UAGUGACACACGUUCUCUGAGAGAUUAUGA,0.0084 ± 0.0028
4,UAGUGACUGACCUACUCUGAGAGAUUAACA,0.113 ± 0.011
5,UAGUGACACACCUUCUCUGAGAGCAUUAACA,0.179 ± 0.022
6,UAGUGUGUCUCCUUCACUGAGAGAUUAACA,0.0568 ± 0.0074
7,UAGUGUGUCACGUUCUGUGAGAGAUUAACA,0.144 ± 0.011
8,UAGUGACUCACCUUCUCUGAUAGAUUAACA,0.0701 ± 0.008
9,UAGUGACUCUCCUUCUCUGAGAGAUAAACA,0.055 ± 0.0098
10,UAGUGACAGACCUUCACUGAGAGAUUAUCA,0.032 ± 0.014
11,UAGUGACAGUCCUUCUCUGGGAGAUUAACA,0.0569 ± 0.0073
12,UAGUGACACACCAUCUGUGAGAGAUUAACA,0.067 ± 0.01
13,UAGUCAGUGACCUUCUCUGAGAGAUUAACA,0.155 ± 0.0087
14,UAGUGACACACGAACUCUGAGAGAUUAACA,0.00382 ± 0.0018
15,UAGUGACACACCAUCUCUGAGAGAAUAACA,0.015 ± 0.0067
16,UAGUGAGUCACCUUCUCUGGAGAUUAACA,0.0188 ± 0.0076
17,UAGUGUGUCAGCUUCUCUGAGAGAUUUACA,0.072 ± 0.018
18,UAGUGACUCACGAUCUCUGAGAGAUUAACA,0.0452 ± 0.0036
19,UAGUGACAGUCCUUCUGUGAGAGUUUAACA,0.0064 ± 0.0021
20,UAGUCUGUCACCUUCUCUGACAGAUUAACA,0.0146 ± 0.0062
21,UAGUCUGUCACCUACUCUGAGAGAAUAACA,0.0882 ± 0.017
22,UAGUGAGUCACCUUCUGUGUGAGAUUAACA,0.0434 ± 0.0067
23,UAGUGACUCAGCUUCUCUGAGAGAUUAUGA,0.0039 ± 0.0032
24,UAGUCAGUCACCUUCUCUGACAGAUUAACA,0.0294 ± 0.0084

row,Sequence,pre-steady-state target cleavage rate
1,UAGUGACACACCUUCUCUGAUAGAUUAACA,0.0627 ± 0.0081
2,UAGUGUGUCACCUUCUCUGAGAGAUUAACCA,0.236 ± 0.021
3,UAGUGAGUCACCUUCUCUGACACAUUAACA,0.00545 ± 0.0036
4,UAGUGACUCACUCUUCUCUGAGAGAUUAACA,0.0796 ± 0.0079
5,UAGUGACAGACCCUCUCUGAGAGAUUAACA,0.0901 ± 0.019
6,UAGUGACUGACCUUCUCAGAGAGAUUAACA,0.0529 ± 0.0074
7,UAGUCUGUCACCAUCUCUGAGAGAAUAACA,0.127 ± 0.024
8,UAGUGACAGUGCUUCUCUGAGACUUUAACA,< 0.0001
9,UAGUCUCUCACCUUCUCUGACAGAUUAACA,0.0512 ± 0.0076
10,UAGUGACAGUGGAUCUCUGAGUAGAUUAACA,< 0.0001
11,UAGUGACAGUCCUUCUCUGAGAGAUUUACA,0.0361 ± 0.0071
12,UAGUGACAGUCCUUCUCUGAGACAUUAACA,0.00891 ± 0.0025
13,UAGUGACACACCUUCUCUGAGAGAUUUAACA,0.243 ± 0.023
14,UAGUGACACACCUACUCUGAGAGUUUAACA,0.0465 ± 0.012
15,UAGUCUGACACCUUCUCAGAGAGAUUAACA,0.0959 ± 0.01
16,UAGUGACAGUGGAAGACUGAGACAUUAAGA,< 0.0001
17,UAGUGACAGUGGUUCUCUAAGAGAUUAACA,0.00458 ± 0.0017
18,UAGUGAGUCACCAUCUCUGAGAGUUUAACA,0.0921 ± 0.026
19,UAGUGACACAGCUUCUCUGAGAGAUUAACA,0.0705 ± 0.006
20,UAGUGACAGUCCUUCUCUGAGAGAUUAACCA,0.0785 ± 0.0063
21,UAGUGACAGUGGAAGUCUGAGUCUAAUUGA [g10:g15:cont:t1A],0.0124 ± 0.011
22,UAGUGACAGUGCUUGUCUGAGACAUUAACA,0.00491 ± 0.0032
23,UAGUGACUCACCUUCUCAGAGAGAUUAUCA,0.0401 ± 0.0099
24,UAGUGUGACACCUUCUCAGAGAGAUUAACA,0.0933 ± 0.013

# Source: the supplement of paper PMC10338343
